From ChEMBL document CHEMBL4888484, “Replenishing the malaria drug discovery pipeline: Screening and hit evaluation of the MMV Hit Generation Library 1 (HGL1) against asexual blood stage Plasmodium falciparum ,using a nano luciferase reporter read-out” (2022) come the findings set out here.

Each structure is given as a SMILES string. Where “and” joins values, the source holds several entries; their conditions need not be identical. Equal values may be shown once. Hit rate of the full screen: of about 150,000 compounds, about 540 (0.36%) showed an effect of 50% or more. Some of the results follow.

This assay concerns Plasmodium falciparum. Nature of the assay: Primary screen in NF54 nanoGlo assay, in single point, at 2uM, 72h; a lower Z score goes with more inhibition. It is filed as functional, Erythrocyte. As to conditions: timepoint 72 hour.

What is called % Inhibition is the relative decrease from the control value, in per cent. As to `COc1ccc(-c2nc3c(c(N4CCN(C)CC4)n2)CCOCC3)cc1`, the “% Inhibition” value was -3% and the Z score was found to be 0.45.
Take `CCCc1ncc(CNC(=O)[C@H](C)c2cn(C)c3ccccc23)o1`: the “% Inhibition” value is listed as -8% and the Z score was found to be 1.09.
As for `C#CC(CC)(CC)NS(=O)(=O)c1ccc(Cl)cc1`, the “% Inhibition” value is recorded as -4% and the Z score worked out at 0.54.
For the compound `O=C(Nc1nsc(-c2ccc(Cl)cc2)n1)c1ccccc1F`, the “% Inhibition” value is -10% and the Z score amounted to 1.31.
As to `COc1ncc(C(=O)N2CCO[C@H](C(C)(C)C)CC2)cn1`, the “% Inhibition” value was -9% and the Z score is 1.62.
The like results for `O=C(NCc1ccc(Cn2ccnc2)cc1)[C@@H]1CCN1Cc1ccccc1` were, in that order, -2% and 0.21.
As to `O=C(Nc1noc2c1CCCC2)[C@H]1CCOC2(CCCC2)C1`, the “% Inhibition” value is given as -1% and the Z score worked out at 0.15.
The like results for `COc1ccc(-n2c(N)c(C(=O)NCc3ccc4c(c3)OCO4)sc2=S)c(OC)c1` were, in that order, -6% and 0.74.
The like results for `Cc1ccc(S(=O)(=O)c2c(C(=O)N3CCCCC3)cnc3ccc(F)cc23)cc1` were, in that order, 5% and -0.86.
For `Cn1cc(C(C)(C)C(=O)N2CC[C@H]2C(F)F)cn1`, the “% Inhibition” value is given as -13% and the Z score amounted to 1.32.
Consider `Cc1ccc(N2C[C@@H](C(=O)N3CCCC3)CC2=O)c(C)c1`, for which the “% Inhibition” value was -7% and the Z score was found to be 1.07.
In the case of `Cn1ncc2c(=O)n(C[C@H](O)COc3ccc(F)cc3)cnc21`, the “% Inhibition” value was -8% and the Z score worked out at 1.65.
With `O=C(C1CCN([C@H]2CN(S(=O)(=O)c3ccccc3)C[C@@H]2O)CC1)N1CCCC1`, the “% Inhibition” value is reported as 7% and the Z score is reported as -0.86.
The like results for `CC(=O)N1CCCCC[C@H]1c1noc(-c2ccccc2)n1` were, in that order, -12% and 1.77.
Regarding `C[C@H]1CS(=O)(=O)CCCN1C(=O)COC1(C)CCC1`, the “% Inhibition” value is given as -5% and the Z score stood at 0.82.
Regarding `COc1cc(CS(=O)(=O)[C@@H](C)C(=O)N2CCc3ccccc32)ccc1OC(F)F`, the “% Inhibition” value is reported as -1% and the Z score is listed as 0.1.
Consider `CCOc1ccccc1C1c2[nH]c3ccccc3c2C[C@H]2C(=O)N(C3CCCCCC3)CC(=O)N12` (stereo partly drawn), for which the “% Inhibition” value is reported as 24% and the Z score was -3.09.
Regarding `O=C(NC[C@H]1CCCN2CCCC[C@@H]12)C1CC(=O)N(c2n[nH]c3cccc(F)c23)C1` (stereo partly drawn), the “% Inhibition” value is on record as -7% and the Z score is listed as 0.83.
On to `CC[C@@H](CNC(=O)N1CCCN(c2ccccc2C)CC1)N1CCOCC1`, for which the “% Inhibition” value is -4% and the Z score came out at 0.57.
On to `Cc1ccc([C@H](CNC(=O)c2oc3cc(C)c(Cl)cc3c2C)N2CCN(C)CC2)o1`, for which the “% Inhibition” value is -6% and the Z score amounted to 0.9.
As for `CN(Cc1ccc(F)cc1)C(=O)Nc1ccc2[nH]ccc2c1`, the “% Inhibition” value was -1% and the Z score came out at 0.1.
With `COc1ccc(C(=O)N(Cc2cc3ccc(C)cc3nc2N2CCN(C(C)=O)CC2)C2CC2)cc1OC`, the “% Inhibition” value worked out at 7% and the Z score is on record as -0.95.
As for `CC[C@@H]1OC2(CCN(C(=O)c3cc4c(C)cc(F)cc4[nH]3)CC2)NC1=O`, the “% Inhibition” value amounted to 6% and the Z score was -1.
As to `Cc1nnc2ccc(-c3noc(-c4ccc5cc[nH]c5c4)n3)cn12`, the “% Inhibition” value is -13% and the Z score was 2.23.
Regarding `Cn1c(CN2CC3CCCCC32c2ccccc2)cc(=O)n(C)c1=O` (stereo not drawn), the “% Inhibition” value is -7% and the Z score is given as 1.31.
The like results for `COc1ccc(CCNC(=O)c2cc(C(C)(C)C)c3c(O)n[nH]c3n2)cc1` were, in that order, 35% and -3.96.
With `CN(C[C@H]1CCCCN1C)c1ncccc1C(N)=O`, the “% Inhibition” value is 1% and the Z score is on record as -0.13.
`CS(=O)(=O)NCc1ncnn1CCc1ccccc1`: the “% Inhibition” value was -21% and the Z score stood at 1.9.
Regarding `CCc1cccc2c(C3CCN(C(=O)c4cccc5c4CNC5)CC3)c[nH]c12`, the “% Inhibition” value is -10% and the Z score was determined as 1.67.
For `CCCC(C)NC(=O)C(C)NC1CCN(C(C)=O)CC1CC` (stereo not drawn), the “% Inhibition” value is recorded as -2% and the Z score amounted to 0.22.
The like results for `CS(=O)(=O)N[C@H]1C[C@@H]2C[C@H]1N(C(=O)c1cc3c(s1)CCCC3)C2` were, in that order, 28% and -3.16.
The like results for `CC(NC(=O)C1CC(=O)C1)C(c1ccccc1Cl)n1cccn1` (stereo not drawn) were, in that order, 19% and -2.47.
The like results for `O=C([C@H]1CCCN(Cc2ccco2)C1)N1CCc2ncccc2C1` were, in that order, 9% and -1.65.
For `O=C(C1=NN(c2ccccc2)C(=O)CN1)N1CCOCC1`, the “% Inhibition” value is reported as 5% and the Z score is reported as -1.
The like results for `CC(=O)N1CCN(C(=O)c2cnc(-c3ccc4c(c3)CCO4)s2)C(C)(C)C1` were, in that order, -8% and 0.9.
`CC(C)[C@@H](CO)NC(=O)NCC1OCCc2sccc21` (stereo partly drawn): the “% Inhibition” value is -10% and the Z score was 0.83.
Take `Cc1ccc(C(=O)Nc2sc3c(c2C(=O)N2CCC(C)CC2)CC[C@H](C)C3)cc1`: the “% Inhibition” value worked out at 3% and the Z score is -0.44.
The like results for `Cc1cccc2nc(CN3CCS(=O)(=O)CC3)cn12` were, in that order, -12% and 1.68.
With `CC(=O)Nc1ccc(CN2C[C@@H]3CC[C@H]2CN(Cc2[nH]cnc2C)C3)cc1`, the “% Inhibition” value is reported as -5% and the Z score is listed as 0.48.
`COc1ccc(-c2cnc3n2C[C@@H](C(=O)NCCNC(C)=O)CC3)cc1`: the “% Inhibition” value is on record as -3% and the Z score was determined as 0.49.
On to `N#CCCS(=O)(=O)c1ccc(Cl)c(Cl)c1`, for which the “% Inhibition” value is reported as -16% and the Z score amounted to 3.02.
For the compound `CC(C)N1CCc2nc(-c3ccccc3)[nH]c(=O)c2C1`, the “% Inhibition” value came to 6% and the Z score is given as -0.85.
For the compound `Cc1nc(C2CC2)oc1C(=O)N(CC(F)F)c1ccc(F)cc1`, the “% Inhibition” value is recorded as 0% and the Z score is listed as -0.02.
Turning to `O=C(Cc1ccc(F)cc1)N1C2CCC1CC(n1cncn1)C2` (stereo not drawn), the “% Inhibition” value was -9% and the Z score was determined as 1.07.
As to `O=C(NCCc1ccc(Cl)cc1)c1ccc(Cn2c(=O)[nH]c3ccccc3c2=O)cc1`, the “% Inhibition” value is -9% and the Z score is on record as 1.68.
Consider `C[C@@H](CN1CCCCC1)OC(=O)Cc1ccc(Cl)cc1`, for which the “% Inhibition” value (2 µM) was 0% and -13%.
As for `c1ccc(-c2nnc(-c3ccco3)nc2-c2c[nH]c3ccccc23)cc1`, the “% Inhibition” value is recorded as -17% and the Z score is given as 1.97.
As for `O=S1(=O)CCCN1CCN1CCCc2c(F)cccc21`, the “% Inhibition” value is recorded as -6% and the Z score was found to be 0.89.
Turning to `COc1ccccc1-n1ccn2cc(-c3ccc(C)c(C)c3)nc2c1=O`, the “% Inhibition” value is -3% and the Z score was 0.44.
For `CCOc1ccc(S(=O)(=O)N2C[C@@H]3CN(C(C)C)C[C@]3(C(=O)N3CCCC3)C2)cc1`, the “% Inhibition” value is given as -21% and the Z score stood at 2.76.
The like results for `CC(C)(C)NC(=O)Cn1cccc(S(=O)(=O)N2CCCC2)c1=O` were, in that order, -5% and 0.85.
For the compound `O=C(N[C@H]1CCOC[C@@H]1OCC1CCC1)c1ccon1`, the “% Inhibition” value is recorded as -8% and the Z score turned out to be 1.51.
